Common to all, as to test: split reporter; bimolecular fluorescence complementation of NGFP and CGFP fusions in strain JKA17; rich medium with 100 µM IPTG, 0.4% arabinose and 0.2% glucose, three days at 25 °C; relative fluorescence of equal amounts of cells read in a fluorimeter
In test [1] the target is T1, EIIB^Glc-CGfp (E. coli K-12) (UniProt P69786).
T1 sequence: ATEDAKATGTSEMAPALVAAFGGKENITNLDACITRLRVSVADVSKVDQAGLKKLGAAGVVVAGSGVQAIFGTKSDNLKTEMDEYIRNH

Test [2] has as its target T2, EIICB^Glc-CGfp (E. coli K-12) (UniProt P69786).
T2 sequence: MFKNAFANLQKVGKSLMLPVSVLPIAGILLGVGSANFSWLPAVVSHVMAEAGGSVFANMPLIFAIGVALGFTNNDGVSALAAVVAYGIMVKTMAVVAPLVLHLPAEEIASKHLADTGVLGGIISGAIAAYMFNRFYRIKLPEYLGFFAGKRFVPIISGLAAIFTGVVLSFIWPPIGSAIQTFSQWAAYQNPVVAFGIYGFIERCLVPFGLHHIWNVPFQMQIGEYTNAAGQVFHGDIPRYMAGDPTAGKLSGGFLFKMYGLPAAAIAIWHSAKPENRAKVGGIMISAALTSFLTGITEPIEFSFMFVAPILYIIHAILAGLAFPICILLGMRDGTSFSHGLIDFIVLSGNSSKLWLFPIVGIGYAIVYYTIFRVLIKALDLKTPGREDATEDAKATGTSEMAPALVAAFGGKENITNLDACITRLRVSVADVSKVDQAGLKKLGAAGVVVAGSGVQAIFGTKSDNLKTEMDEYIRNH

Test [3] addresses T3, Linker-EIIB^Glc-CGfp (E. coli K-12) (UniProt P69786).
T3 sequence: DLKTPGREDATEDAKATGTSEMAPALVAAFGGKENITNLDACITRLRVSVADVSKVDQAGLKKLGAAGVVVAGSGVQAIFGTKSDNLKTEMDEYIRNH

In test [4] the target is T4, EIIC^Glc-CGfp (E. coli K-12) (UniProt P69786).
T4 sequence: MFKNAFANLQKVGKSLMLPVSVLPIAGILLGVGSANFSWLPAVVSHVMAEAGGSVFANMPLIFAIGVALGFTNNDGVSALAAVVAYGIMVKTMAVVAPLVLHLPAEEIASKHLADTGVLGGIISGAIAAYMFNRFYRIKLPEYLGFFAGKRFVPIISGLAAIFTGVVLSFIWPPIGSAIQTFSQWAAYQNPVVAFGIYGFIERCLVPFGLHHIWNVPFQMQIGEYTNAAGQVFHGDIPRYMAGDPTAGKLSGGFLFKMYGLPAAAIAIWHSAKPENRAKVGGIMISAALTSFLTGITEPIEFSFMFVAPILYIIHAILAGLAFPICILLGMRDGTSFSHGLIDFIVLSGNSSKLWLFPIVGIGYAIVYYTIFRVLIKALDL

Test [5] deals with T5, EIIC^Glc-Linker-CGfp (E. coli K-12) (UniProt P69786).
T5 sequence: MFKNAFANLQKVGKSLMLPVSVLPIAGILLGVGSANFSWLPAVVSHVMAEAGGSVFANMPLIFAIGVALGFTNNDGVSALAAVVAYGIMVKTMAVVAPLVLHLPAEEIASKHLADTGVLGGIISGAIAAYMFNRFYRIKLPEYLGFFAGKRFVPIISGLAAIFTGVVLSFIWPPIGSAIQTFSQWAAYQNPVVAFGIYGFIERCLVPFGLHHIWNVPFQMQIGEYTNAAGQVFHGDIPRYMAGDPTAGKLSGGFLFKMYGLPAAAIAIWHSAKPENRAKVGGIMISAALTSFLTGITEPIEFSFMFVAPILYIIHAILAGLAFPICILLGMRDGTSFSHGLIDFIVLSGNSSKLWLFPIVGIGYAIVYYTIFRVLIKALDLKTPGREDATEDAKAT

Test [6] addresses T6, EIIC^Glc-Linker-P384R-CGfp (E. coli K-12) (UniProt P69786).
T6 sequence: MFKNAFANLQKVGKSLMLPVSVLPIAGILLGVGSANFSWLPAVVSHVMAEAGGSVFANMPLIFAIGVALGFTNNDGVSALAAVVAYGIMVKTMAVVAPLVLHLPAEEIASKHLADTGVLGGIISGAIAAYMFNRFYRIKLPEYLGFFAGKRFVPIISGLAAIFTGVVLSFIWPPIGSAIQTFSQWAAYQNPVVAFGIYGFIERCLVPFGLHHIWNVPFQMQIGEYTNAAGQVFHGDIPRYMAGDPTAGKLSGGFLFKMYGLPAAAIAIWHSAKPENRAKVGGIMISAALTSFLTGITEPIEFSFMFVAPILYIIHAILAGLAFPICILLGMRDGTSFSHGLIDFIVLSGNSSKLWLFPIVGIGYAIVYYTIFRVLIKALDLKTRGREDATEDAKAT

No constants are given. Whether binding was seen depends on the method and setting. Binding seen in cells or lysates may run through a third protein. Some entries that bind do so weakly or less than the wild type. Sequences can lack the tags named with a protein.

B1: SgrT-NGfp (peptide, UniProt C1P5Z7 1-43)
chain: MRQFYQHYFTATAKLCWLRWLSVPQRLTMLEGLMQWDDRNSES
On to B1, for which the binding entry is recorded as “no binding” in test [1]; “binds” in test [2]; “no binding” in test [3]; “no binding” in test [4]; “binds” in test [5]; “no binding” in test [6].

Source of the values: paper PMC3901232.
